Measured values taken from the supplement of paper PMC4967469.
Lines with a small IC50 respond at low doses; where the fit passes the top or lowest dose, that dose stands as a limit. AUC is the area under the same curve over the 256-fold range up to the top dose, as a fraction: 1 means no effect, lower means more sensitive. For part of these data: The top dose, if marked as inferred, was derived from the fitted curves, not read from the paper. For part of these data: Drugs with an entry number were screened twice under separate entries, and the two screens often disagree.

How the values were obtained:
Assay in all cases: Viability of human cancer cell lines after 72 h of drug (GDSC screen)
FTI-277 = compound: COC(=O)[C@H](CCSC)NC(=O)c1ccc(NC[C@@H](N)CS)cc1-c1ccccc1 [FTI-277]; settings: top dose 1.024 µM; top dose inferred
Experimental: (§1)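 Human cancer cell lines in 384-well plates, medium with 10% serum, drug for 72 h over a 256-fold dose range (nine 2-fold or five 4-fold steps up to the top dose). Adherent lines were fixed and stained with the nucleic acid dye Syto60, suspension lines read with resazurin; signal relative to control wells, capped at 0 and 100%. One two-parameter sigmoid per drug and line, fitted in a mixed model over all curves with the slope shared within a line.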

JQ1 = compound: Cc1sc2c(c1C)C(c1ccc(Cl)cc1)=N[C@@H](CC(=O)OC(C)(C)C)c1nnc(C)n1-2 [JQ1]
Experimental: as §1

NSC-207895 = compound: CN1CCN(c2ccc([N+](=O)[O-])c3no[n+]([O-])c23)CC1 [NSC-207895]; settings: top dose 20 µM; top dose inferred
Experimental: as §1

AMG-706 = compound: CC1(C)CNc2cc(NC(=O)c3cccnc3NCc3ccncc3)ccc21 [AMG-706]; settings: top dose 2 µM; top dose inferred
Experimental: as §1

Cyclopamine = compound: CC1=C2C[C@H]3[C@@H](CC=C4C[C@@H](O)CC[C@@]43C)[C@@H]2CC[C@]12O[C@@H]1C[C@H](C)CN[C@H]1[C@H]2C [Cyclopamine]; settings: top dose 16 µM; top dose inferred
Experimental: as §1

CGP-60474 = compound: OCCCNc1cc(-c2ccnc(Nc3cccc(Cl)c3)n2)ccn1 [CGP-60474]; settings: top dose 0.256 µM; top dose inferred
Experimental: as §1

YM155 = compound: COCC[n+]1c2c(n(Cc3cnccn3)c1C)C(=O)c1ccccc1C2=O [YM155]; settings: top dose 5.12 µM
Experimental: as §1

JNJ-26854165 = compound: c1ccc2c(CCNc3ccc(Nc4ccncc4)cc3)c[nH]c2c1 [JNJ-26854165]; settings: top dose 10 µM
Experimental: as §1

SB-715992 = compound: Cc1ccc(C(=O)N(CCCN)[C@@H](c2nc3cc(Cl)ccc3c(=O)n2Cc2ccccc2)C(C)C)cc1 [SB-715992]; settings: top dose 0.128 µM; top dose inferred
Experimental: as §1

Belinostat = compound: O=C(/C=C/c1cccc(S(=O)(=O)Nc2ccccc2)c1)NO [Belinostat]; settings: top dose 20 µM; top dose inferred
Experimental: as §1

Docetaxel = compound: CC(=O)O[C@@]12CO[C@@H]1C[C@H](O)[C@@]1(C)C(=O)[C@H](O)C3=C(C)[C@@H](OC(=O)[C@H](O)[C@@H](NC(=O)OC(C)(C)C)c4ccccc4)C[C@@](O)([C@@H](OC(=O)c4ccccc4)[C@H]21)C3(C)C [Docetaxel]; settings: top dose 0.0125 µM
Experimental: as §1

JNK Inhibitor VIII = compound: CCOc1nc(NC(=O)Cc2cc(OC)ccc2OC)cc(N)c1C#N [JNK Inhibitor VIII]; settings: top dose 10 µM; top dose inferred
Experimental: as §1

OSI-906 = compound: C[C@]1(O)C[C@@H](c2nc(-c3ccc4ccc(-c5ccccc5)nc4c3)c3c(N)nccn32)C1 [OSI-906]; settings: top dose 2.56 µM; top dose inferred
Experimental: as §1

NVP-TAE684 = compound: COc1cc(N2CCC(N3CCN(C)CC3)CC2)ccc1Nc1ncc(Cl)c(Nc2ccccc2S(=O)(=O)C(C)C)n1 [NVP-TAE684]; settings: top dose 2 µM
Experimental: as §1

[1] = top dose 1 µM, screen: GDSC drug entry 1218, top dose inferred
[2] = top dose 2.56 µM, screen: GDSC drug entry 163

| Cell Line | AUC (FTI-277) | IC50 (FTI-277) [nM] | AUC (JQ1; [1]) | IC50 (JQ1; [1]) [nM] | AUC (JQ1; [2]) | IC50 (JQ1; [2]) [nM] | AUC (NSC-207895) | IC50 (NSC-207895) [nM] | AUC (AMG-706) | IC50 (AMG-706) [nM] | AUC (Cyclopamine) | IC50 (Cyclopamine) [nM] | AUC (CGP-60474) | IC50 (CGP-60474) [nM] | AUC (YM155) | IC50 (YM155) [nM] | AUC (JNJ-26854165) | IC50 (JNJ-26854165) [nM] | AUC (SB-715992) | IC50 (SB-715992) [nM] | AUC (Belinostat) | IC50 (Belinostat) [nM] | AUC (Docetaxel) | IC50 (Docetaxel) [nM] | AUC (JNK Inhibitor VIII) | IC50 (JNK Inhibitor VIII) [nM] | AUC (OSI-906) | IC50 (OSI-906) [nM] | AUC (NVP-TAE684) | IC50 (NVP-TAE684) [nM] |
| --- | --- | --- | --- | --- | --- | --- | --- | --- | --- | --- | --- | --- | --- | --- | --- | --- | --- | --- | --- | --- | --- | --- | --- | --- | --- | --- | --- | --- | --- | --- |
| SK-ES-1 (Ewing sarcoma, semi-adherent) | 0.969 | > 1020 | 0.983 | > 1000 | 0.74 | 816 | 0.893 | > 20000 | 0.985 | > 2000 | 0.985 | > 16000 | 0.706 | 63.8 | 0.109 | < 20 | 0.84 | 7560 | 0.752 | 45.1 | 0.198 | 147 | 0.863 | 11.9 | 0.985 | > 10000 | 0.561 | 238 |  |  |
| NCI-H1092 (small cell lung carcinoma, suspension) | 0.985 | > 1020 | 0.982 | > 1000 | 0.953 | > 2560 | 0.858 | 16600 | 0.99 | > 2000 | 0.99 | > 16000 | 0.767 | 95.7 | 0.373 | 143 | 0.955 | > 10000 | 0.867 | 117 | 0.368 | 539 | 0.986 | > 12.5 | 0.99 | > 10000 | 0.892 | > 2560 |  |  |
| CTV-1 (acute myeloid leukaemia, suspension) | 0.991 | > 1020 | 0.992 | > 1000 | 0.775 | 817 | 0.953 | > 20000 | 0.991 | > 2000 | 0.89 | 12100 | 0.646 | 37.1 | 0.019 | < 20 | 0.773 | 3150 | 0.471 | 6.77 | 0.34 | 497 | 0.897 | 10 | 0.992 | > 10000 | 0.979 | > 2560 |  |  |
| RCC10RGB (kidney, adherent) | 0.842 | > 1020 |  |  | 0.372 | 50.7 | 0.942 | > 20000 | 0.97 | > 2000 | 0.883 | > 16000 | 0.713 | 118 | 0.807 | > 5120 | 0.926 | > 10000 | 0.972 | > 128 | 0.916 | > 20000 | 0.971 | > 12.5 | 0.969 | > 10000 | 0.774 | 2310 |  |  |
| SUP-T1 (T-cell lymphoblastic leukaemia, suspension) | 0.975 | > 1020 | 0.916 | > 1000 | 0.556 | 224 | 0.866 | 15200 | 0.987 | > 2000 | 0.985 | > 16000 | 0.989 | > 256 | 0.022 | < 20 | 0.976 | > 10000 | 0.753 | 39.3 | 0.24 | 243 | 0.99 | > 12.5 | 0.985 | > 10000 | 0.919 | > 2560 |  |  |
| HCC2157 (breast, suspension) | 0.978 | > 1020 | 0.984 | > 1000 | 0.57 | 252 | 0.984 | > 20000 | 0.987 | > 2000 | 0.973 | > 16000 | 0.797 | 127 | 0.167 | 29 | 0.906 | > 10000 | 0.925 | > 128 | 0.582 | 2120 | 0.747 | 4.16 | 0.986 | > 10000 | 0.924 | > 2560 |  |  |
| KU812 (chronic myeloid leukaemia, suspension) | 0.987 | > 1020 | 0.778 | 368 | 0.521 | 182 | 0.606 | 2370 | 0.988 | > 2000 | 0.871 | 12800 | 0.635 | 36.5 | 0.021 | < 20 | 0.846 | 6370 | 0.521 | 9.07 | 0.024 | < 78.1 | 0.921 | > 12.5 | 0.986 | > 10000 | 0.987 | > 2560 |  |  |
| TE-11 (oesophagus, adherent) | 0.99 | > 1020 | 0.989 | > 1000 | 0.802 | 1130 | 0.989 | > 20000 | 0.99 | > 2000 |  |  | 0.599 | 29.1 | 0.456 | 246 | 0.917 | > 10000 | 0.83 | 70.9 | 0.957 | > 20000 | 0.444 | 0.558 | 0.986 | > 10000 | 0.407 | 91 | 0.561 | 181 |
